From PubChem BioAssay AID686971 (National Center for Advancing Translational Sciences (NCATS), 2013)
Out of some 360,000 compounds screened, about 7,500 (2.1%) were called active. Inconclusive results, whose numbers are uncertain, are shown with a selection of clear calls. The call rests on the fitted dose curve; in most records, active means well fitted cell-killing curve with a large enough effect; inconclusive means small, poorly fitted or top-dose-only effect, or effect the other way, or another doubt; inactive means no such curve, though single readings can be large or run the other way. Potencies of inconclusive entries are left out as doubtful fits.

Test: qHTS for induction of synthetic lethality in tumor cells producing 2HG: qHTS for the HT-1080-IDH1KD cell line;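 on activity, negative = toxicity: 0% = DMSO wells and -100% = cell-free medium wells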
Details: HT-1080 IDH1 knockdown viability, ATP luminescence, 48 h; activity, negative = toxicity: at 46.1 µM (top of the series) unless noted
Outline: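 IDH1KD HT-1080 cells, 750/well, RPMI + 5% FBS; compound pinned after 2 h settling; 48 h, 37 °C; CellTiter-Glo luminescence; % activity normalised to DMSO and no-cell wells; curves fitted, classed by r2 and efficacy.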
Potency means the concentration at half of the fitted maximal effect; tags describe the fitted curve by direction and shape.

SMILES | activity, negative = toxicity | Potency
Cn1c(=O)c2c(SCC(=O)NCc3ccco3)nc(CC(C)(C)C)nc2n(C)c1=O | inactive: -1.34% | –
Cc1ccc(C(=O)NCC(C)NC(=O)c2ccc(C)c([N+](=O)[O-])c2)cc1[N+](=O)[O-] (centres undefined) | inactive: -3.68% | –
CCCN1C=CC(=C2C(=O)c3ccccc3C2=O)C=C1 | – | active: 11.2 µM
Cc1nc(C)c(C(=O)N/N=C/c2c[nH]c3ccccc23)s1 | inactive: -27.4% | –
CC1CCc2cc(F)ccc2N1S(=O)(=O)c1ccc(Cl)nc1 (centres undefined) | – | inconclusive [cytotoxic, single point]
COc1ccc(/C=N/NC(=O)c2cc(C(C)(C)C)[nH]n2)cc1COc1ccc(F)cc1F | – | inconclusive [cytotoxic, single point]
CC(C)(C)OC(=O)NCCc1nnc(S(=O)(=O)Cc2ccc(Cl)cc2Cl)o1 | – | active: 16.4 µM
CC(=O)c1cccc(-c2ccnc3c2CC(C(=O)NCCC(F)(F)F)O3)c1 (centres undefined) | – | active: 20.6 µM
CSc1ccc(S(=O)(=O)NCCSC(C)(C)C)cc1 | – | inconclusive [cytotoxic, single point]
CCOc1ccc(N2C(=O)C3=C(C(c4ccc(Cl)cc4)=NCCN3)C2c2cccnc2)cc1 (centres undefined) | – | active: 14.6 µM
Cc1ccc(S(=O)(=O)Nc2cc(C(=O)NCCN3CCCC3)ccc2N2CCCCC2)cc1 | – | inconclusive [cytotoxic, single point]
C[C@@H]1CN([C@H](C)CO)C(=O)c2c(c3ccccc3n2C)-c2ccccc2CO[C@H]1CN(C)Cc1ccc(-c2ccccc2)cc1 | – | active: 16.4 µM
COc1cnc(-c2ccccn2)nc1Oc1ccc(C(C)(C)C)cc1 | – | inconclusive [cytotoxic, single point]
O=C1c2ccccc2C2=Nc3ccccc3SC(c3ccc(Cl)cc3)C12 (centres undefined) | – | inconclusive [cytotoxic, single point]
CC1CCCN(Cc2c(O)ccc3c(=O)c(-c4nc5ccccc5s4)c(N)oc23)C1 (centres undefined) | – | active: 18.4 µM
OCc1ccc(-c2nn(Cc3ccccc3)c3ccccc23)o1 | – | inactive
Nc1nccs1 | inactive: 13% [at 92.2 µM] | –
O=C(N/N=C/c1cc([N+](=O)[O-])ccc1O)c1cc(-c2ccccc2)nc2ccccc12 | – | active: 4.11 µM
COc1ccccc1CNc1ncnc2c1cnn2-c1ccccc1 | – | inconclusive [cytotoxic, single point]
CCCCCCCCN1C(=O)[C@H](CC(=O)NCc2cccc(C(F)(F)F)c2)C[C@@]2(C(=O)OC)CC(C)(C)CC=C12 | – | inconclusive [cytotoxic, single point]
CC(=O)NC(=S)Nc1cc(C(F)(F)F)ccc1N1CCOCC1 | inactive: 0.538% | –
CC(NCc1ccc(OCc2ccc(Cl)cc2)cc1)C(O)c1ccccc1 (centres undefined) | – | active: 18.4 µM
O=C(Nc1ccc(OC(F)F)c(Cl)c1)c1cccc(OC(F)F)c1 | – | inconclusive [cytotoxic, single point]
Cc1nc2ncnn2c(Nc2ccc3c(c2)OCO3)c1Cc1ccccc1 | inactive: -23% | –
O=C(Cc1ccccc1)NNC(=O)c1ccc(NC(=O)c2ccccc2)cc1 | – | inconclusive [cytotoxic, single point]

SMILES | activity, negative = toxicity | Potency
Cc1ccc(OCC(=O)N2CCC3(CC2)CC(=O)c2ccccc2O3)cc1 | inactive: 1.04% | –
Cc1nc2ccccc2n1CC(=O)NC1CCCCCC1 | – | inconclusive [cytotoxic, partial curve]
CC(=O)c1ccc(-c2ccc([C@H]3[C@@H]4C=CCC[C@@]4(C)C(=O)N3Cc3ccccc3)c(F)c2)cc1 | – | inconclusive [cytotoxic, single point]
O=S(=O)(Nc1ccc(S(=O)(=O)Nc2nccs2)cc1)c1ccc2c(c1)OCCO2 | – | inconclusive [cytotoxic, partial curve]
COc1ccc([N+](=O)[O-])cc1NC(=O)c1cn(-c2ccc(C)c(C)c2)c(=O)c2ccccc12 | inactive: -9.71% | –
CCc1cccc(CC)c1-n1c(SCC(=O)N2CCc3ccccc3C2)nnc1-c1cccnc1 | – | inconclusive [cytotoxic, single point]
O=C(c1ccco1)N1CCN(C(=O)c2cc3sccc3n2Cc2ccccc2)CC1 | – | inconclusive [cytotoxic, single point]
COc1cccc(C(=O)C2CCCN(Cc3cccn3-c3ccccn3)C2)c1 (centres undefined) | – | inconclusive [cytotoxic, single point]
COc1ccc(-c2oc3ncnc(NCCCN(C)C)c3c2-c2ccc(OC)cc2)cc1 | – | inconclusive [cytotoxic, single point]
Cn1sccc1=O | – | inconclusive [cytotoxic, single point]
S=C1SCN(Cc2ccccn2)CN1Cc1ccco1 | – | active: 15.8 µM
O=C(NCc1ccc(F)c(F)c1)C1Cc2c(-c3ccc4c(c3)OCO4)ccnc2O1 (centres undefined) | – | inconclusive [cytotoxic, full curve]
COc1ccc(NC(=O)C2Cc3c(-c4cccc(F)c4)ccnc3O2)cc1OC (centres undefined) | – | inconclusive [cytotoxic, partial curve]
CCC(CC)c1nnc(NC(=O)c2ccc([N+](=O)[O-])cc2)s1 | inactive: 23.8% | –
CCn1c(CC(=O)Nc2ccc(C)cc2)n[nH]c1=S | inactive: 9.64% | –
CC1(Cc2ccccc2OC(F)(F)F)C(=O)Nc2ccc(OC(F)(F)F)cc21 (centres undefined) | – | active: 20.6 µM
CNC(=O)OCc1nc(SSC(C)(C)C)n(C)c1COC(=O)NC | – | active: 18.4 µM
CN(C)c1ccc(C=c2c3cc([N+](=O)[O-])ccc3n3c2cc(-c2ccccc2)[n+]3C)cc1 | – | active: 10.3 µM
O=C(CSc1nnc(COc2ccccc2)o1)NCCc1ccccc1 | – | inconclusive [cytotoxic, single point]
O=C(O)c1ccccc1-c1csc(-c2ccccc2)n1 | inconclusive: 30.3% | –
Cc1ccc(NC(=O)CCNC(=O)c2ccc(Cl)cc2)nc1 | inactive: 15.8% | –
O=C1CC(SC(=Nc2ccccc2)Nc2ccccc2)C(=O)N1c1ccc(Cl)c(Cl)c1 (centres undefined) | – | inconclusive [cytotoxic, single point]
O=C(CC1Sc2ccccc2NC1=O)NNc1cccc(Cl)c1Cl (centres undefined) | – | inconclusive [cytotoxic, single point]
CC(Sc1nnc(N)s1)C(=O)Nc1ccc2c(c1)OCO2 (centres undefined) | inactive: -4.67% | –
Cc1nc2c(-c3ccccc3)c(C)nn2c(C)c1CCC(=O)N1CCOCC1 | – | inconclusive [cytotoxic, single point]

SMILES | activity, negative = toxicity | Potency
C[n+]1ccc(/C=C/c2ccccc2O)c2ccccc21 | – | inconclusive [cytotoxic, single point]
S=C(NCCc1ccc(Cl)cc1)NC1CCCCC1 | – | inconclusive [cytotoxic, single point]
O=C(Cc1ccc(Cl)cc1)NCCc1ccc(F)cc1 | inactive: -1.2% | –
O=C(/C=C/c1ccc(Br)cc1)c1ccco1 | – | inconclusive [cytotoxic, partial curve, poor fit]
O=C(c1cc(-c2ccccc2)n[nH]1)N1CCc2c([nH]c3ccccc23)C1c1ccccn1 (centres undefined) | – | inconclusive [cytotoxic, partial curve]
OC(c1ccccc1)(c1ccccc1)C1CCN(CCCOc2ccccc2)CC1 | – | inconclusive [cytotoxic, single point]
CCOC(=O)c1sc(NC(=O)CSC(=S)N2CCN(C)CC2)nc1C | inconclusive: -31.9% [cytotoxic] | –
Cc1cccc(NC(=O)CSc2nnc3ccc(-c4cccnc4)nn23)c1 | inactive: 0.842% | –
COc1ccc(C(=O)Nn2cnnc2)cc1OC | – | inconclusive [rising, partial curve, poor fit]
Cc1ccc(C(=O)N/N=C/c2ccc3c(c2)OCO3)o1 | – | inconclusive [cytotoxic, partial curve]
C[C@H]1COC(=O)[C@@H](Cc2ccc(F)cc2)CC/C=C/C[C@H](CC(=O)N(CCO)Cc2ccccc2)C(=O)N1 | inactive: -4.25% | –
Cc1cc2nc(C3CCCN(C(=S)Nc4ccccc4)C3)[nH]c2cc1C (centres undefined) | – | inconclusive [cytotoxic, single point]
C/C(=C\c1ccco1)C1C(C#N)=C(N)Oc2n[nH]c(-c3ccccc3)c21 (centres undefined) | inactive: -0.184% | –
COc1ccc(C(=O)CNC2=NCCC2)cc1 | – | inconclusive [rising, partial curve]
Cc1cc(=O)[nH]c(SCC(=O)/C=C2\N(C)c3ccccc3C2(C)C)n1 | – | inconclusive [cytotoxic, single point]
CC(=O)Nc1cccc(-c2ccnc3c2CC(C)(C(=O)NCc2cccs2)O3)c1 (centres undefined) | – | active: 1.64 µM
C=CCC(C(=O)NC(C)c1ccccc1)C(=O)NC(C)c1ccccc1 (centres undefined) | inactive: 19.8% | –
COc1ccc(/C=N\NC(=O)c2ccccc2F)cc1COc1ccc(F)cc1F | – | active: 2.31 µM
CCN(CC)S(=O)(=O)c1ccc(-c2nnc(SCC(=O)Nc3nc(C)cs3)o2)cc1 | – | inconclusive [cytotoxic, partial curve]
O=c1[nH]c2ccccc2n2cnnc12 | – | inconclusive [rising, partial curve]
O=C(NCc1cccs1)c1ccc(CS(=O)Cc2ccc(Cl)cc2)o1 (centres undefined) | inactive: -1.2% | –
O=C(/C=C/c1ccccc1)NC(NC(=S)Nc1ccc(Cl)cc1)C(Cl)(Cl)Cl (centres undefined) | – | active: 18.4 µM
O=C(c1ccco1)N1CCN(Cc2ccccc2Br)CC1 | – | inconclusive [rising, single point]
Cn1c(/C=C/c2ccccc2)nc2ccccc21 | – | inconclusive [cytotoxic, partial curve]
